# Measured values published in the RNAGym collection of RNA variant scans (doi:10.1093/nar/gkz1192).
# Read counts are not given, so values of variants with three or more changes are uncertain.
# B1: CPEB3 Ribozyme (parent)
# chain: UAACAGGGGGCCACAGCAGAAGCGUUCACGUCGCAGCCCCUGUCAGAUUCUGGUGAAUCUGCGAAUUCUGCUGUAUAUCUC
# Variants of: B1
# Assay: self-cleavage, relative activity (ratio to wild type); higher = more cleavage; in vitro, sequencing
# In short: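 Libraries of CPEB3 self-cleaving ribozyme mutants came from rounds of error-prone PCR and carried barcodes, which DNA sequencing matched to variants. In vitro transcription used T7 RNA polymerase at 37°C for 5 hours, with a further 15 min in DNase I before EDTA stopped the reaction; the ribozymes cleaved during both steps. The RNA was reverse transcribed with template switching and sequenced on Illumina. Relative activity is the cleaved/total read fraction of a variant divided by that of the unmutated ribozyme, averaged over three batches with at least 5 reads.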
row,Variant,self-cleavage
1,G8A A15U C59A G73C U80A,0.04
2,G7U U26C G46U U51A A75G,0.09
3,G8A A15U A18U G53C,0.05
4,G8A A21G U60A U80G,0.05
5,G7U C23U U54C,0.17
6,G8A A13G A15U C40U A64U U69A,0.04
7,G8A A20G U48C A57U,0.07
8,G7U C11U U25C C71U U78C,0.04
9,G8A A15U A35U U54C A64G,0
10,G7U C40G U51A A75U U78C,0.04
11,G7U U31G A57C,0.05
12,G8A A18C U69C U78A,0.03
13,G8A A20U U49C U51C A65G,0.04
14,G8A A18G U74G,0.08
15,G7U U25A C40G U41A U60C,0.3
16,G8A A18G A47G,0.06
17,G8A A28G A35G A45U U54C A65G U69C,0.04
18,G8A A18G U26A U41A U48C U78C U80A,0.29
19,G8A A21G A45U A77G,0.15
20,G8A A18G C27A A45G U51C U72G,0.05
21,G7U G22U U72A,0.37
22,G7U U49C U69C,0.11
23,G7U U41A A57G,0.06
24,G8A A15U A21G U31C U49C,0.19

row,Variant,self-cleavage
1,G7U U60A A77G,0.1
2,G8A A20G A28U U31C C50U A57G,0.04
3,G8A A18G A20U C39A U51G A65G U72A,0.05
4,G8A A21G U67C U78C C79U,0.06
5,G8A A45G U54C A56G U78A,0.04
6,G8A A18C U43G A45G U67C U72C,0.13
7,G7U G10C G33U U43A U60C U80C,0.11
8,G7U U26G A56G U60G U80A,0.06
9,G8A A20G C37U U41A U49A U54C,0.06
10,G8A A15G U41C,0.37
11,G8A A15U G33A,0.1
12,G7U U41C A56G U60A U66C U67C U80A,0.04
13,G8A A15G G19C G61U,0.08
14,G8A A35U U67A U74A,0.22
15,G7U G33A U41A G52U U54A U72C U76A,0.15
16,G8A A15U A21G U25A U31C C40A U67C,0.04
17,G8A A28G U51A,0.17
18,G8A A13G U41C U49A U54C U66A U72C,0.05
19,G8A A20G U25A A47G U49A U78C,0.04
20,G8A A28G U74C A75U U78A,0.05
21,G7U G53C U58A U78C,0.15
22,G8A A18G C34U A57G C81U,0.04
23,G7U C14U U31A U74C U76A,0.26
24,G8A A21G U26A U48C,0.06

row,Variant,self-cleavage
1,G7U C40U U69A,0.15
2,G7U C40U U69C,0.12
3,G8A A13G U26A A65G,0.09
4,G7U G10C A21G U60C A64G U80C,0.07
5,G7U U49C G53A,0.33
6,G7U G63U U67A U69A,0
7,G8A A28G A47U U69A,0.11
8,G7U G22C U26C U41A G73C,0.26
9,G7U U48C U49C A57G A64G,0.06
10,G8A A18G A56G,0.28
11,G8A A13U C40U A64G,0.05
12,G8A A15G U31C U76A,0.09
13,G8A A15G A28G U80C,0.58
14,G7U U41C U60A,0.19
15,G7U U41C A64G,0.09
16,G7U G10C U26C U76C,0.15
17,G7U G9C U25C U31A C32U U41C U78A,0.07
18,G8A A15G A45G G52U U60C,0.1
19,G8A A13C U26A,0.37
20,G8A A28U U54A U72C,0.06
21,G8A A13G U26A U41C U54C U72G U76C,0.05
22,G7U U43C U48C,0.15
23,G7U C29U U41C A45C,0.04
24,G7U C12A A28G A56G A57G C62U A64G,0.06

row,Variant,self-cleavage
1,G8A A15C U51C,0.08
2,G7U G10U U31A U60A U66C U69A U76C,0.03
3,G7U G36U U41A A57G G73C,0.05
4,G8A A35G A57U U78C,0.1
5,G8A A28U C29U,0.08
6,G7U C37A U69C,0.04
7,G8A A21G U31C A45G U78C,0.05
8,G8A A35U A45C U69C,0.05
9,G7U C12U A13G A35U U78C,0.05
10,G7U G10A A56G G63A U67G U78C,0.03
11,G8A A20G U26A,0.07
12,G8A A20G U25A U60A U69A,0.05
13,G7U U25C U31C,0.37
14,G7U C12A A21G A77U,0.03
15,G8A A21G U49C U51C U54G A77G,0.03
16,G8A A21G U51C A57G A64U C81U,0.25
17,G8A A28G C29U U49C U51A U54C U67A,0.04
18,G8A A21U U26C U80A,0.04
19,G8A A13U A20U A47G A56G,0.07
20,G7U C23U U54C U60C G70A,0.04
21,G7U U26C U31C U43C,0.16
22,G8A A13U A35G U41C U48C U76A,0.21
23,G7U U26C A65G U72A,0.12
24,G7U U26C U78A,0.07

row,Variant,self-cleavage
1,G7U U26C A57U A64G,0.27
2,G8A A18U A64U,0.26
3,G8A A20U C29A U58C G63A U80C C81U,0.04
4,G7U U25C U26C U49C U72A,0.15
5,G8A A20U A35U U60C A64G U69C,0.05
6,G7U G36U U72C U78G U80A,0.09
7,G7U G9U A21G U76A C81A,0.04
8,G7U U31C A56G U74C,0.1
9,G7U G52C U78C,0.24
10,G8A A18G A21G A35G G73U,0.05
11,G8A A15U A18G,0.03
12,G8A A18G C44A U54C U67A U78A,0.06
13,G7U C14U A57G,0.36
14,G8A A35G U41C U58C U60C U74A U80A,0.07
15,G8A A20G U49C,0.3
16,G8A A15U U43C U67C A77G,0.04
17,G8A A28U A35U U41C A56G U69C,0.17
18,G8A A20G A56G U69A C71U,0.05
19,G8A A15G A21U U25A A35U A57G,0.15
20,G7U U43A A45G U69G U78C,0.14
21,G7U G22C A28U U74A,0.05
22,G7U G10A A15U G19C,0.04
23,G7U U25C G30A U31C A77U,0.05
24,G7U U25C U31C U41C U43A A75G,0.03

row,Variant,self-cleavage
1,G7U U31A U51A A56G U60G,0.08
2,G8A A18U A21G U60A U69A,0.04
3,G8A A15C U58C,0.08
4,G7U G9U U67C,0.15
5,G7U G22C U41C U49A,0.16
6,G8A A28G U58C,0.03
7,G8A A13G A45G U69C,0.08
8,G7U G30U A57U U66G C71U,0.02
9,G8A A45G A64C U72C C79U,0.02
10,G8A A21G U31C U60A U66A,0.05
11,G8A A20G C39U U51A A65G,0.07
12,G8A A28G G33U U60A,0.17
13,G8A A18U A56G,0.23
14,G7U U26A U41A U48C A57G A75U,0.1
15,G8A A18U G63A U66C U74C,0.28
16,G8A A15C A47G U72C U78C,0.05
17,G7U C38A A75C,0.05
18,G7U U60C U72A U80A,0.05
19,G7U C11G C39G U67A U69A U80C,0.04
20,G7U U43C A57U G73C,0.05
21,G7U C14U U54A A57G A65C U67C,0.05
22,G8A A28G C38G,0.11
23,G8A A18G U69A U78A,0.09
24,G8A A13U C39A U66C A77G,0.05

row,Variant,self-cleavage
1,G7U U25C C34U A64G,0.06
2,G7U C14U U48A,0.25
3,G8A A28U U51A,0.07
4,G8A A15G U51C A65G,0.1
5,G8A A21G U25A A28G U31C U72A,0.04
6,G8A A20G U26A U43C G63A A64G A77U,0.03
7,G8A A18G A20U U60A,0.05
8,G8A A28G U41A U49C A56U A65G,0.13
9,G8A A45G A56G U80A,0.33
10,G7U C38U U72C,0.18
11,G7U G33A A35U A64G U67C,0.13
12,G8A A15U A28G G33U,0.07
13,G8A A18G A20G,0.49
14,G8A A13U A56G,0.2
15,G8A A21G G52U U54A,0.05
16,G8A A35G U48C U69A,0.07
17,G8A A15G A45G A64U,0.17
18,G8A A15U U80C,0.47
19,G8A A20G U49A U67C U80C,0.07
20,G8A A18G G33U U43A,0.05
21,G8A A35C U43A,0.12
22,G8A A15G U43C U74A,0.09
23,G8A A13G U31C G36A,0.07
